Experimental data as given in US20100331250A1 (GENOR BIOPHARMA, published 2010).

Biological target: T1, human VEGF165 (human, UniProt P15692-4 27-191)
T1 construct: VEGF165 is the 165-residue isoform of VEGF-A
T1 sequence (looked up): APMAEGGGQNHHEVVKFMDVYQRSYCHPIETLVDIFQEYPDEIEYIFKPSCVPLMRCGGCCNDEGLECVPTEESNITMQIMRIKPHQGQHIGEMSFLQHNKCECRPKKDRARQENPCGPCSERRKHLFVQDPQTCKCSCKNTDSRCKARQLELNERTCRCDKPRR
Assay: quantitative ELISA; serial concentrations of fusion protein mixed with 40 pM human VEGF165, detection with anti-human IgG Fc-HRP
Protocol: Binding assay of fusion proteins with VEGF were performed by quantitative ELISA kit using VEGF-Trap as control. Fusion proteins were mixed in serial concentrations with 40 pM human VEGF₁₆₅, and incubated at 37° C. for 1 hour. After washing, goat anti human IgG Fc-HRP was added and TMB visualization was performed. The EC₅₀ for the fusion protein SR1 and VEGF-Trap was calculated.

EC50: 0.092 µg/mL
B1: fusion protein SR1 (Fc fusion)
chain: SDTGRPFVEMYSEIPEIIHMTEGRELVIPCRVTSPNITVTLKKFPLDTLIPDGKRIIWDSRKGFIISNATYKEIGLLTCEATVNGHLYKTNYLTHRQTNTIIDPFIASVSDQHGVVYITENKNKTVVIPCLGSISNLNVSLCARYPEKRFVPDGNRISWDSKKGFTIPSYMISYAGMVFCEAKINDESYQSIMYIVVVVGYRIYDVVLSPSHGIELSVGEKLVLNCTARTELNVGIDFNWEYPSSKHQHKKLVNRDLKTQSGSEMKKFLSTLTIDGVTRSDQGLYTCAASSGLMTKKNSTFVRVHEK[skipping human IgG1 Fc]
modifications: Glycosylated, Fc-mediated homodimer; one chain given.
notes: Expressed with the Flt1 signal peptide (NP-002010:1-26), which is not part of the secreted protein
